Laboratory results as given in the supplement of paper PMC11148083.
In brackets after ≈: the same amount, converted by molar mass. MIC of E. coli strains with or without a β-lactamase plasmid, in LB (broth microdilution, 22 h, 37 °C, OD600 below 0.2; fosfomycin by agar dilution); pBAD18 genes induced with arabinose where stated. Higher = less susceptible. No active / inactive call. Values are arithmetic means of replicate MICs, so they fall between dilution steps. Colistin is a mixture; one drawing stands for it.

Key:
Assay in all cases: Broth microdilution in LB (fosfomycin: agar dilution), 22 h at 37 °C; MIC = lowest dose with OD600 below 0.2.
[1] = test system: Escherichia coli BW25113 (arabinose: 0.5% w/v)
Escherichia coli ECOR01 = test system: Escherichia coli ECOR01
Escherichia coli ECOR27 = test system: Escherichia coli ECOR27
Escherichia coli ECOR35 = test system: Escherichia coli ECOR35
Escherichia coli ECOR42 = test system: Escherichia coli ECOR42
Escherichia coli ECOR47 = test system: Escherichia coli ECOR47
Escherichia coli ECOR49 = test system: Escherichia coli ECOR49
Escherichia coli ECOR53 = test system: Escherichia coli ECOR53
Escherichia coli ECOR61 = test system: Escherichia coli ECOR61
Escherichia coli ECOR70 = test system: Escherichia coli ECOR70
Escherichia coli J53 = test system: Escherichia coli J53

CO/N=C(\C(=O)N[C@@H]1C(=O)N2C(C(=O)O)=C(COC(C)=O)CS[C@H]12)c1csc(N)n1 [cefotaxime]
Conditions	MIC [µg/mL]
Escherichia coli ECOR01, plasmid: none	0.12 (≈ 0.263 µM)
Escherichia coli ECOR01, plasmid: pUN4 empty	0.103 (≈ 0.227 µM)
Escherichia coli ECOR01, plasmid: pUN4 with blaCTX-M-15	64 (≈ 141 µM)
Escherichia coli ECOR01, plasmid: pUN4 with blaOXA-48	1.27 (≈ 2.8 µM)
Escherichia coli ECOR27, plasmid: none	0.12 (≈ 0.263 µM)
Escherichia coli ECOR27, plasmid: pUN4 empty	0.146 (≈ 0.32 µM)
Escherichia coli ECOR27, plasmid: pUN4 with blaCTX-M-15	64 (≈ 141 µM)
Escherichia coli ECOR27, plasmid: pUN4 with blaOXA-48	2 (≈ 4.39 µM)
Escherichia coli ECOR35, plasmid: none	0.103 (≈ 0.227 µM)
Escherichia coli ECOR35, plasmid: pUN4 empty	0.0925 (≈ 0.203 µM)
Escherichia coli ECOR35, plasmid: pUN4 with blaCTX-M-15	64 (≈ 141 µM)
Escherichia coli ECOR35, plasmid: pUN4 with blaOXA-48	0.517 (≈ 1.13 µM)
Escherichia coli ECOR42, plasmid: none	0.113 (≈ 0.249 µM)
Escherichia coli ECOR42, plasmid: pUN4 empty	0.125 (≈ 0.274 µM)
Escherichia coli ECOR42, plasmid: pUN4 with blaCTX-M-15	64 (≈ 141 µM)
Escherichia coli ECOR42, plasmid: pUN4 with blaOXA-48	0.5 (≈ 1.1 µM)
Escherichia coli ECOR47, plasmid: none	0.163 (≈ 0.359 µM)
Escherichia coli ECOR47, plasmid: pUN4 empty	0.146 (≈ 0.32 µM)
Escherichia coli ECOR47, plasmid: pUN4 with blaCTX-M-15	64 (≈ 141 µM)
Escherichia coli ECOR47, plasmid: pUN4 with blaOXA-48	2 (≈ 4.39 µM)
Escherichia coli ECOR49, plasmid: none	0.146 (≈ 0.32 µM)
Escherichia coli ECOR49, plasmid: pUN4 empty	0.135 (≈ 0.296 µM)
Escherichia coli ECOR49, plasmid: pUN4 with blaCTX-M-15	64 (≈ 141 µM)
Escherichia coli ECOR49, plasmid: pUN4 with blaOXA-48	0.5 (≈ 1.1 µM)
Escherichia coli ECOR53, plasmid: none	0.12 (≈ 0.263 µM)
Escherichia coli ECOR53, plasmid: pUN4 empty	0.146 (≈ 0.32 µM)
Escherichia coli ECOR53, plasmid: pUN4 with blaCTX-M-15	64 (≈ 141 µM)
Escherichia coli ECOR53, plasmid: pUN4 with blaOXA-48	2 (≈ 4.39 µM)
Escherichia coli ECOR61, plasmid: none	0.0708 (≈ 0.156 µM)
Escherichia coli ECOR61, plasmid: pUN4 empty	0.0983 (≈ 0.216 µM)
Escherichia coli ECOR61, plasmid: pUN4 with blaCTX-M-15	64 (≈ 141 µM)
Escherichia coli ECOR61, plasmid: pUN4 with blaOXA-48	0.0925 (≈ 0.203 µM)
Escherichia coli ECOR70, plasmid: none	0.125 (≈ 0.274 µM)
Escherichia coli ECOR70, plasmid: pUN4 empty	0.167 (≈ 0.366 µM)
Escherichia coli ECOR70, plasmid: pUN4 with blaCTX-M-15	64 (≈ 141 µM)
Escherichia coli ECOR70, plasmid: pUN4 with blaOXA-48	0.5 (≈ 1.1 µM)
Escherichia coli J53, plasmid: none	0.163 (≈ 0.359 µM)
Escherichia coli J53, plasmid: pUN4 empty	0.163 (≈ 0.359 µM)
Escherichia coli J53, plasmid: pUN4 with blaCTX-M-15	2 (≈ 4.39 µM)
Escherichia coli J53, plasmid: pUN4 with blaOXA-48	2 (≈ 4.39 µM)
[1], plasmid: none	0.125 (≈ 0.274 µM)
[1], plasmid: pBAD18 empty	0.125 (≈ 0.274 µM)
[1], plasmid: pBAD18 with blaCTX-M-14	512 (≈ 1120 µM)
[1], plasmid: pBAD18 with blaCTX-M-15	448 (≈ 984 µM)
[1], plasmid: pBAD18 with blaKPC-2	11 (≈ 24.2 µM)
[1], plasmid: pBAD18 with blaNDM-1	299 (≈ 656 µM)
[1], plasmid: pBAD18 with blaOXA-1	13.3 (≈ 29.3 µM)
[1], plasmid: pBAD18 with blaOXA-48	1.5 (≈ 3.29 µM)
[1], plasmid: pBAD18 with blaTEM-1	0.146 (≈ 0.32 µM)

COc1cc(Cc2cnc(N)nc2N)cc(OC)c1OC [trimethoprim]
[1]
Conditions	MIC [µg/mL]
plasmid: none	0.417 (≈ 1.44 µM)
plasmid: pBAD18 empty	0.375 (≈ 1.29 µM)
plasmid: pBAD18 with blaCTX-M-14	0.417 (≈ 1.44 µM)
plasmid: pBAD18 with blaCTX-M-15	0.458 (≈ 1.58 µM)
plasmid: pBAD18 with blaKPC-2	0.375 (≈ 1.29 µM)
plasmid: pBAD18 with blaNDM-1	0.417 (≈ 1.44 µM)
plasmid: pBAD18 with blaOXA-1	0.5 (≈ 1.72 µM)
plasmid: pBAD18 with blaOXA-48	0.417 (≈ 1.44 µM)
plasmid: pBAD18 with blaTEM-1	0.458 (≈ 1.58 µM)

C[C@@H](O)[C@H]1C(=O)N2C(C(=O)O)=C(S[C@@H]3CN[C@H](C(=O)N(C)C)C3)[C@H](C)[C@H]12 [meropenem]
[1]
Conditions	MIC [µg/mL]
plasmid: none	0.03 (≈ 0.0782 µM)
plasmid: pBAD18 empty	0.03 (≈ 0.0782 µM)
plasmid: pBAD18 with blaCTX-M-14	0.06 (≈ 0.156 µM)
plasmid: pBAD18 with blaCTX-M-15	0.06 (≈ 0.156 µM)
plasmid: pBAD18 with blaKPC-2	1 (≈ 2.61 µM)
plasmid: pBAD18 with blaNDM-1	3.33 (≈ 8.69 µM)
plasmid: pBAD18 with blaOXA-1	0.552 (≈ 1.44 µM)
plasmid: pBAD18 with blaOXA-48	0.583 (≈ 1.52 µM)
plasmid: pBAD18 with blaTEM-1	0.06 (≈ 0.156 µM)

O=C(N[C@H](CO)[C@H](O)c1ccc([N+](=O)[O-])cc1)C(Cl)Cl [chloramphenicol]
[1]
Conditions	MIC [µg/mL]
plasmid: none	5.33 (≈ 16.5 µM)
plasmid: pBAD18 empty	4 (≈ 12.4 µM)
plasmid: pBAD18 with blaCTX-M-14	4.67 (≈ 14.4 µM)
plasmid: pBAD18 with blaCTX-M-15	4 (≈ 12.4 µM)
plasmid: pBAD18 with blaKPC-2	4 (≈ 12.4 µM)
plasmid: pBAD18 with blaNDM-1	4.67 (≈ 14.4 µM)
plasmid: pBAD18 with blaOXA-1	4 (≈ 12.4 µM)
plasmid: pBAD18 with blaOXA-48	4 (≈ 12.4 µM)
plasmid: pBAD18 with blaTEM-1	4.67 (≈ 14.4 µM)
